Read-outs that look alike come from different tables or passages of the source.

The test addresses SjHSS version (HSS1) (Jacobaea vulgaris, UniProt Q5ZN56). To be noted: TEA buffer pH 9.5, EDTA, DTT, 30 °C, 1 h.

As to `NCCCCN` [putrescine], the “HPLC of dansylated polyamines, homospermidine and 1,3-diaminopropane formation” value (with spermidine and NAD+) was “in vitro enzyme assays with spermidine and putrescine as substrates were carried out”.

Regarding `NCCCCNCCCN` [spermidine], the “HPLC of dansylated polyamines, homospermidine and 1,3-diaminopropane formation” value (with putrescine and NAD+) was “in vitro enzyme assays with spermidine and putrescine as substrates were carried out”.

These data come from paper PMC8355542, “The Orphan Crop Crassocephalum crepidioides Accumulates the Pyrrolizidine Alkaloid Jacobine in Response to Nitrogen Starvation” (Frontiers in Plant Science, 2021).
